In one assay the target is T1, purified Atgl (UniProt Q8BJ56).
T1 sequence: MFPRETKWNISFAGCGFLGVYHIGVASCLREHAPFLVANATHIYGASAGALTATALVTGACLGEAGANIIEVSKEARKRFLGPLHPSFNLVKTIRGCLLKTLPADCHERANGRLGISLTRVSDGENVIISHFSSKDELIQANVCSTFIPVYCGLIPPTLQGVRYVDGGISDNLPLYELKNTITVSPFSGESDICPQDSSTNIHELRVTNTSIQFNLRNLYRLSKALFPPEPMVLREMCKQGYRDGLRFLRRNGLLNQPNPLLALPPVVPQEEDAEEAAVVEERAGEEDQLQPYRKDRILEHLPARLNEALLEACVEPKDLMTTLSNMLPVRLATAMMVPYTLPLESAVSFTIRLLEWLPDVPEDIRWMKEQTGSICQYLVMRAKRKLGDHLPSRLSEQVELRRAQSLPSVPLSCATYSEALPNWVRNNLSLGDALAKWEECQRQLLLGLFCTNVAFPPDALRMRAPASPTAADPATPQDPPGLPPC
Put plainly: ELISA; competitive solid phase assay: plates coated with 1 μg of purified (partially purified) Atgl; bacterial lysates (60 μg of total protein) containing LacZ, A-Fabp or mCgi-58, the last together with purified Strep-A-Fabp (0.5-, 1- or 5-fold molar excess over Atgl); anti-Strep primary and Hrp-conjugated secondary antibody, absorbance 450/620 nm; only the target purified. For orientation: In an ELISA, binding on a coated surface is turned into a signal by an enzyme label.

Amino acid sequences for entries named in this document (tags omitted).
UniProt Q01469: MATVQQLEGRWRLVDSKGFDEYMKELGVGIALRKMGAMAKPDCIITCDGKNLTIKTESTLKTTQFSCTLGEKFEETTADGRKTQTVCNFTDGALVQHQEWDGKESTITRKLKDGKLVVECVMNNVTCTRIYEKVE
UniProt P05413: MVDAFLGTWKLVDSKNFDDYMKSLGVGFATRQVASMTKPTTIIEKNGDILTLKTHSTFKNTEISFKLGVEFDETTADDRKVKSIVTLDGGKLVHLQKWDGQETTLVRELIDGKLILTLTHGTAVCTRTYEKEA
UniProt P00722: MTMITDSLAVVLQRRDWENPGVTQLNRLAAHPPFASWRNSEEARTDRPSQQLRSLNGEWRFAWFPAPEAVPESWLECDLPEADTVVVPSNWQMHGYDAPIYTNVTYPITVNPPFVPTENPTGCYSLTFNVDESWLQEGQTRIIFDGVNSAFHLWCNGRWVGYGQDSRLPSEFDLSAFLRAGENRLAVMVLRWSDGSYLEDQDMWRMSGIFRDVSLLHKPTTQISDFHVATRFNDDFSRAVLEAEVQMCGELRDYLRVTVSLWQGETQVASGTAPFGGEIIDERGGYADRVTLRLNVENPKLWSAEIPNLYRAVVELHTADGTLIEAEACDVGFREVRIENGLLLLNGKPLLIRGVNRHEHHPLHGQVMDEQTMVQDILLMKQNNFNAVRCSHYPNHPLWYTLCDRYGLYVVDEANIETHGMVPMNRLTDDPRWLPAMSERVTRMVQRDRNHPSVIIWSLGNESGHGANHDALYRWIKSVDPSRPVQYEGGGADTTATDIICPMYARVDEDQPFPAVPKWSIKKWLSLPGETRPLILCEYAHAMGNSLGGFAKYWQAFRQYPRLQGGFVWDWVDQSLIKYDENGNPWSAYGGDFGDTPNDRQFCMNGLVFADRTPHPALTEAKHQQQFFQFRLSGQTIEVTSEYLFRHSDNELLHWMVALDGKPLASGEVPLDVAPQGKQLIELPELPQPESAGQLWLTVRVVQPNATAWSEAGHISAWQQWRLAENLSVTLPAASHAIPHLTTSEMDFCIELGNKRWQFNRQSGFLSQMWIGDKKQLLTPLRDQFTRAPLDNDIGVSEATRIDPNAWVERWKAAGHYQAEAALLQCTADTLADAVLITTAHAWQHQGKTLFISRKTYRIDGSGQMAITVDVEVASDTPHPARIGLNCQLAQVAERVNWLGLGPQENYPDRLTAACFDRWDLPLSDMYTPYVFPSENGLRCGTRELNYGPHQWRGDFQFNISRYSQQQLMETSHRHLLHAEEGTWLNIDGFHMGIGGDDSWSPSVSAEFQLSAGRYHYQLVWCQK
UniProt Q9DBL9: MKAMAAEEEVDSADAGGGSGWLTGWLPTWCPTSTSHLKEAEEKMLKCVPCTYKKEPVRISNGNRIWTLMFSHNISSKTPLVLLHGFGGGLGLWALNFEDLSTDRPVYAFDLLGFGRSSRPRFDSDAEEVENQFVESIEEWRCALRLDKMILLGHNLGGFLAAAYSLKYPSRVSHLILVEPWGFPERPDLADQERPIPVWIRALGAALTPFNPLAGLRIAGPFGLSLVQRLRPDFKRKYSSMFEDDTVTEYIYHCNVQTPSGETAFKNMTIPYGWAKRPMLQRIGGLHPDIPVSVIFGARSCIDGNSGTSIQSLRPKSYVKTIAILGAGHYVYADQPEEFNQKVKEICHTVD

The target of assay [1] is T2, Fatty acid-binding protein, adipocyte (mouse) (UniProt P04117).
T2 sequence: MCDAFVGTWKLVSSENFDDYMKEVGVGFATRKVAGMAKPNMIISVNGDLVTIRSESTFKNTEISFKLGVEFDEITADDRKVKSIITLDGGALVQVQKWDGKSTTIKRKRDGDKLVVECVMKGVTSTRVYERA
The assay is described as follows: co-IP; endogenous proteins in gonadal WAT lysate of an overnight fasted C57BL/6 mouse (700 μg of total protein; 50 mM Tris, pH 7.4, 150 mM NaCl, 1% Nonidet P-40, 1 mM EDTA); monoclonal antibodies against A-Fabp, Cgi-58 or Gfp (control), protein A/G-Sepharose, Western blotting.

For assay [2], the target named is Strep-tagged A-Fabp (human) (UniProt P15090). Put plainly: ELISA; solid phase assay: 96-well polystyrene plates coated overnight with 3 μg of purified Fabp, blocked with 5% delipidated BSA in TBS (50 mM Tris, pH 8.0, 150 mM NaCl); COS-7 cell extracts (10–60 μg of total protein) with His-tagged proteins, 2% BSA, 0.05% Tween 20, overnight; anti-His primary and Hrp-conjugated secondary antibody, absorbance 450/620 nm; only the target purified.

The next assay has as its target E-Fabp (human) (UniProt Q01469). The assay is described as above.
The target in a further assay is T3, A-Fabp^K59E (human) (UniProt P15090).
T3 sequence: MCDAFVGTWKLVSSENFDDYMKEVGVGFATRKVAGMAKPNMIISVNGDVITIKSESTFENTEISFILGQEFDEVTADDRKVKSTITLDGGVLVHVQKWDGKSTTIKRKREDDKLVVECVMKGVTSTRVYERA
The assay is described as above.

The target of a further assay is T4, A-Fabp^D77G (human) (UniProt P15090).
T4 sequence: T3 sequence with E59K, D77G
The assay is described as above.

For another assay, the target named is H-Fabp (human) (UniProt P05413). Described as above.
A further assay concerns the target T5, A-Fabp^K22E,R31E (human) (UniProt P15090).
T5 sequence: T3 sequence with K22E, R31E, E59K
Described as above.

The next assay addresses T6, A-Fabp^K22E (human) (UniProt P15090).
T6 sequence: T3 sequence with K22E, E59K
Described as above.

The target in a further assay is T7, A-Fabp^R31E (human) (UniProt P15090).
T7 sequence: T3 sequence with R31E, E59K
Described as above.

Another assay deals with T8, A-Fabp^F58S (human) (UniProt P15090).
T8 sequence: T3 sequence with F58S, E59K
The assay is described as above.

The target in a further assay is T9, I-Fabp (human) (UniProt P12104).
T9 sequence: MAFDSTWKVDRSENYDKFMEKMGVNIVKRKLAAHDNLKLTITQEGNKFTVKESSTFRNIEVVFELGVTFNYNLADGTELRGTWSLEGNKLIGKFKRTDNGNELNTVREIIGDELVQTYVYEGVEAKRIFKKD
Described as above.

Another assay addresses T10, L-Fabp (human) (UniProt P07148).
T10 sequence: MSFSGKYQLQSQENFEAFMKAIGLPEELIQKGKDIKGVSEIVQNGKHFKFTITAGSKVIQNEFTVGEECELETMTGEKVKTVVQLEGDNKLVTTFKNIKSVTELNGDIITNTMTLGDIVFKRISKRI
The assay is described as above.

The next assay deals with T11, A-Fabp^R127Q (human) (UniProt P15090).
T11 sequence: T3 sequence with E59K, R127Q
The assay is described as above.

Another assay addresses T12, A-Fabp^D78G (human) (UniProt P15090).
T12 sequence: T3 sequence with E59K, D78G
Described as above.

Changes are numbered by the printed parent chain. Results are given in words; binding and its absence hold for the method and conditions named. For part of these data: Binding seen in cells or lysates may run through a third protein. Some results given as binding are weak or reduced against the parent protein; the word gives no strength.

On to “LacZ (bacterial lysate) (from UniProt P00722 1-1024) (enzyme)”, for which, in the assay with purified Atgl, the binding entry is reported as “no binding (tested: bacterial lysate, 60 μg of total protein)”.

As for “Cgi-58 (endogenous, murine WAT) (from UniProt Q9DBL9 1-351)”, the binding entry in assay [1] is “binds”.

Regarding “Strep-tagged A-Fabp (from UniProt P15090 1-132)”, the binding result with purified Atgl is “no binding (tested: bacterial lysate, 60 μg of total protein)”.

On to “His-tagged β-galactosidase (LacZ) (from UniProt P00722 1-1024) (enzyme)”, for which the binding entry in assay [2] is “no binding (tested: cell extracts, 10–60 μg of total protein)”.

As to “His-tagged murine Cgi-58 (from UniProt Q9DBL9 1-351)”, the binding entry with E-Fabp (human), with A-Fabp^K59E (human), in the assay with A-Fabp^D77G (human), in the assay with H-Fabp (human), with A-Fabp^K22E,R31E (human) and with A-Fabp^K22E (human) was “binds” each time. Besides, the binding result (in [2]; with A-Fabp^R31E (human); in the assay with A-Fabp^F58S (human); with I-Fabp (human); with L-Fabp (human); in the assay with A-Fabp^R127Q (human)) was “binds” throughout. For the same substance, the binding result with A-Fabp^D78G (human) was “binds”.

Turning to “Strep-tagged Cgi-58 (from UniProt Q9DBL9 1-351)”, the binding entry in the assay with purified Atgl was “binds”.

The record behind these values is publication PMC4513104.
